Publication PMC6664820, “Novel natural and synthetic inhibitors of solute carriers SGLT1 and SGLT2” (Pharmacology Research & Perspectives, 2019)
The whole screen tested about 1,900 compounds, of which about 40 (2%) showed an effect of 50% or more. The list shows a part of the results.

The compounds below were run against human SGLT1 (hSGLT1) (human, UniProt P13866) (assay: primary screen, percent of control activity; higher = less effect of the substance). Settings: 50 µM.
Parameters: single well
Outline: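 Single-point screen at 50 µmol/L in CHO-hSGLT1 cells, with 160 µmol/L 1-NBD-glucose in glucose-free DMEM for 90 min at 37°C. Fluorescence from isopropanol extracts was calibrated, and CHO wild-type uptake was subtracted. Data are percent of uptake without compound.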

human SGLT1 (hSGLT1), sequence (P13866 whole entry, looked up): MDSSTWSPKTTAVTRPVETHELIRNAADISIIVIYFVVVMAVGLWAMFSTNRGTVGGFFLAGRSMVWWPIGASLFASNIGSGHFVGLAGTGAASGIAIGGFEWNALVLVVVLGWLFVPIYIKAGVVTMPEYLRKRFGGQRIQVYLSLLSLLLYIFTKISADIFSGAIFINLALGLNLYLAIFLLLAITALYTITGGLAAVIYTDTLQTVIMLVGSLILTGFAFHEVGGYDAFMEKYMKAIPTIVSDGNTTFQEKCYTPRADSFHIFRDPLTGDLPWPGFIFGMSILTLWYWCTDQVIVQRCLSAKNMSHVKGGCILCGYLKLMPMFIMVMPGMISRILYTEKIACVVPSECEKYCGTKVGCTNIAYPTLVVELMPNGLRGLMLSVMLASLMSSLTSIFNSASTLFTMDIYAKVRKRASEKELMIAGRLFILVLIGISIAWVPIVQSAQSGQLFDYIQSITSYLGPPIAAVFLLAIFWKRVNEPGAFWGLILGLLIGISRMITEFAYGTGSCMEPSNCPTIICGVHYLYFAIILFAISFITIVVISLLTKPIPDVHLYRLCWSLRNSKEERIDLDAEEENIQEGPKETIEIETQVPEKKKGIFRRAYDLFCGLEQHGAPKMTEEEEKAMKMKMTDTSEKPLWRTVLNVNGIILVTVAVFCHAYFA

Structure (SMILES) | NORMALIZED SGLT1 ACTIVITY (%)
Cl.Cl.O=C1c2c(O)ccc(O)c2C(=O)c2c(NCCNCCO)ccc(NCCNCCO)c21 | 106
Cl.Nc1ccc(N=Nc2ccccc2)c(N)n1 | 193
O=C(O[C@@H]1Cc2c(O)cc(O)cc2O[C@@H]1c1cc(O)c(=O)c2c(O)c(O)cc([C@H]3Oc4cc(O)cc(O)c4C[C@H]3O)c2c1)c1cc(O)c(O)c(O)c1 | 98
CC(=O)O[C@H]1CC[C@@]2(C)C(=CC[C@H]3[C@@H]4CC[C@H]([C@H](C)CCCC(C)C)[C@@]4(C)CC[C@@H]32)C1 | 95
O=c1[nH]cnc2nc[nH]c12 | 89
S=P(N1CC1)(N1CC1)N1CC1 | 142
CCCN(CCC)c1c([N+](=O)[O-])cc(C(F)(F)F)cc1[N+](=O)[O-] | 112
NC(=O)NCC(N)C(=O)O (stereo not drawn) | 137
COC(=O)C[C@H]1C(C)(C)C(=O)[C@@H]2CC3C4=CC(=O)O[C@@H](c5ccoc5)[C@]4(C)CCC3[C@@]1(C)C2=O (stereo partly drawn) | 108
O=C1C=C2C=C[C@@H]3C[C@@]2(O1)[C@H]1CCCCN31 | 105
CC(=O)Nc1cc([As](=O)(O)O)ccc1O | 104
CS(=O)(=O)c1ccc(C2=C(c3ccccc3)C(=O)OC2)cc1 | 173
O=C(CCCN1CCC2(CC1)C(=O)NCN2c1ccccc1)c1ccc(F)cc1 | 86
COc1ccc2c(c1)[C@@]1(C)CCC(=O)C[C@@H]1CC2 | 184
COc1ccc(C(=O)CC(=O)O)c2c1C=CC(C)(C)O2 | 115
NC[C@@H]1CC[C@@H](N)[C@@H](O[C@H]2[C@H](O)[C@@H](O[C@H]3O[C@H](CO)[C@@H](O)[C@H](N)[C@H]3O)[C@H](N)C[C@@H]2N)O1.O=S(=O)(O)O | 96
CCN(CC)C(C)CN1c2ccccc2Sc2ccccc21.Cl (stereo not drawn) | 46
CC1(C)NC(=O)N(c2ccc([N+](=O)[O-])c(C(F)(F)F)c2)C1=O | 222
NC1(C(=O)O)CCCC1 | 114
COP(=S)(OC)Oc1ccc(SC)c(C)c1 | 87
CC(=O)O[C@@H]1CC[C@]2(C)C3CC[C@]4(C)C(=O)CCC4C3CC[C@H]2C1 (stereo partly drawn) | 69
CCN(CC)CCOC(=O)C(c1ccccc1)c1ccccc1.Cl | 69
O=C1C(CCS(=O)c2ccccc2)C(=O)N(c2ccccc2)N1c1ccccc1 (stereo not drawn) | 118
CC1CC[C@@]2(OC1)O[C@H]1CC3C4CC[C@@H]5C[C@@H](O)CC[C@]5(C)C4CC[C@]3(C)[C@H]1[C@@H]2C (stereo partly drawn) | 68

Structure (SMILES) | NORMALIZED SGLT1 ACTIVITY (%)
COc1cc(O)c(C(=O)/C=C/c2ccccc2)c(OC)c1 | 178
O=C(/C=C/C=C/c1ccc2c(c1)OCO2)N1CCCCC1 | 87
COC1=C(O)C(=O)c2c(cc3oc(C(C)=O)c(O)c3c2O)C1=O | 105
COc1ccc(-c2oc3cc(O[C@@H]4O[C@H](CO)[C@@H](O)[C@H](O)[C@H]4O)c(OC)c(O)c3c(=O)c2OC)cc1O | 105
CC(=O)O[C@H]1CC[C@@]2(C)C(=CCC3C2CC[C@]2(C)C(=O)CCC32)C1 (stereo partly drawn) | 123
O=C1C=CC(=C(c2ccc(O)cc2)c2ccc(O)cc2)C=C1 | 78
COc1cc(OC)c(OC)cc1C=O | 189
N=C(N)NC(=O)c1nc(Cl)c(N2CCCCCC2)nc1N | 213
COS(C)(=O)=O | 151
O=C(O)c1cc(/N=N/c2ccc(S(=O)(=O)Nc3ccccn3)cc2)ccc1O | 102
CSc1nc(NC(C)C)nc(NC(C)C)n1 | 120
C[C@@H]1C[C@H]2[C@@H]3CCC4=CC(=O)C=C[C@]4(C)[C@@]3(Cl)[C@@H](O)C[C@]2(C)[C@@]1(OC(=O)c1ccco1)C(=O)CCl | 121
CCOC(=O)[C@H](CCc1ccccc1)N[C@@H](C)C(=O)N1CCC[C@H]1C(=O)O.O=C(O)/C=C\C(=O)O | 93
CC[C@@H](CO)NC(=O)[C@@H]1C=C2c3cccc4[nH]cc(c34)C[C@H]2N(C)C1.O=C(O)/C=C\C(=O)O | 113
CCCc1cc(=O)[nH]c(=S)[nH]1 | 182
NC[C@H]1O[C@H](O[C@H]2C(O[C@@H]3O[C@H](CO)[C@@H](O)[C@H]3O)[C@@H](O)[C@H](N)C[C@@H]2N)[C@H](N)[C@@H](O)[C@@H]1O.O=S(=O)(O)O (stereo partly drawn) | 120
CC(=O)Oc1c(C)c(C)c2c(c1C)CCC(C)(CCCC(C)CCCC(C)CCCC(C)C)O2 (stereo not drawn) | 119
COC(=O)c1c(C)cc(OC)cc1O | 130
CC1(C)O[C@@H]2CC3C4C[C@H](F)C5=CC(=O)C=CC5(C)C4C(O)CC3(C)[C@]2(C(=O)CO)O1 (stereo partly drawn) | 167
CC(C)CCCC(C)[C@H]1CCC2C3C(=O)C=C4C[C@@H](O)CC[C@]4(C)C3CC[C@@]21C (stereo partly drawn) | 95
COC1(C)CCC2OC2(C)CCC2C1CC2(C)C (stereo not drawn) | 80
OC[C@@H]1CCCN2CCCC[C@H]12 | 78
C1N2CN3CN1CN(C2)C3 | 106
CCN(CC)CCCC(C)Nc1ccnc2cc(Cl)ccc12.O=P(O)(O)O.O=P(O)(O)O (stereo not drawn) | 116

Structure (SMILES) | NORMALIZED SGLT1 ACTIVITY (%)
O=C1CC[C@]23/C=C/C(=O)NCCCCNCCCNC(=O)/C=C/c4ccc(c2c4)O[C@@H]3C1 | 114
COC(=O)[C@H]1[C@H]2C[C@H]3c4[nH]c5ccccc5c4CCN3C[C@H]2CC[C@@H]1O.Cl | 110
C1CCc2nnnn2CC1 | 142
CCN(CC)C(=O)N1CCN(C)CC1.O=C(O)CC(O)(CC(=O)O)C(=O)O | 96
COC(=O)C[C@H]1C(C)(C)[C@@H](OC(C)=O)[C@@H]2CC3=C4CC(=O)O[C@@H](c5ccoc5)[C@]4(C)CCC3[C@@]1(C)C2=O (stereo partly drawn) | 118
Oc1cccc(O)c1 | 92
Cc1cc(O)cc(C)c1Cl | 597
Cl.Nc1c2c(nc3ccccc13)CCCC2 | 127
Cc1cccc(Nc2ccncc2S(=O)(=O)NC(=O)NC(C)C)c1 | 79
C1CCN2C[C@@H]3C[C@H](CN4CCCC[C@@H]34)[C@H]2C1.I | 69
COc1ccc([C@H]2COc3c(ccc(O)c3OC)C2)c(OC)c1O | 120
C=C(C)[C@@H]1CC[C@]2(CO)CC[C@]3(C)[C@H](CC[C@@H]4[C@@]5(C)CC[C@H](O)C(C)(C)[C@@H]5CC[C@]43C)[C@@H]12 | 93
Nc1ccc(S(N)(=O)=O)cc1 | 207
CC(=O)O[C@H]1C(=O)[C@@]2(C)[C@H]([C@H](OC(=O)c3ccccc3)[C@]3(O)C[C@H](OC(=O)[C@H](O)[C@@H](NC(=O)c4ccccc4)c4ccccc4)C(C)=C1C3(C)C)[C@]1(OC(C)=O)CO[C@@H]1C[C@@H]2O | 90
CC(=O)OCC(=O)[C@@]1(O)CCC2C3CC[C@@H]4C[C@H](OC(C)=O)CC[C@]4(C)C3C(=O)C[C@@]21C (stereo partly drawn) | 106
O=C1c2cccc(O)c2C(=O)c2c(O)cccc21 | 137
COc1cc2c(cc1OC)-c1cc3ccc(OC)c(OC)c3c[n+]1CC2.O | 109
O=C1OC(c2ccc(O)cc2)(c2ccc(O)cc2)c2ccccc21 | 276
NS(=O)(=O)c1cc2c(cc1Cl)NCNS2(=O)=O | 105
NS(=O)(=O)c1cc2c(cc1Cl)N=C(CSCc1ccccc1)NS2(=O)=O | 102
NC(=O)c1cnccn1 | 87
COc1ccc(-c2oc3ccccc3c(=O)c2O)cc1OC | 109
CC(=O)c1ccc[nH]1 | 85
COc1ccc2[nH]cc(CCNC(C)=O)c2c1 | 199

Structure (SMILES) | NORMALIZED SGLT1 ACTIVITY (%)
CC1(C)C2(Cl)C(Cl)C(Cl)C(Cl)(C(Cl)Cl)C1(Cl)C2Cl (stereo not drawn) | 72
[Na+].[Na+].[O-]c1c(Cl)cc(Cl)cc1Sc1cc(Cl)cc(Cl)c1[O-] | 221
Nc1ccc(S(=O)(=O)Nc2nccs2)cc1 | 117
CC(=O)O[C@H]1C[C@@H](OC(C)=O)C(C)(C)C2C[C@@H](OC(C)=O)[C@]3(C)C(CC[C@@]4(C)[C@H](c5ccoc5)OC(=O)[C@H]5O[C@]543)[C@]21C (stereo partly drawn) | 132
CC(C)c1c(O)ccc2c1CCC1[C@@](C)(CO)CCC[C@]21C (stereo partly drawn) | 160
CC(=O)NCCCCCC(=O)O | 105
O=C(O)c1cccnc1Nc1cccc(C(F)(F)F)c1 | 224
CCC(C)C(=O)c1c(O)c(C)c2oc3c(C)c(O)c(C(=O)C(C)CC)c(O)c3c2c1O (stereo not drawn) | 188
COc1cc(C/C=C/c2ccccc2)c(OC)cc1O | 145
COC1=CC(=O)C(O)=C/C1=C\C=C\c1ccccc1 | 112
COC(=O)c1c(C)cc(OC(=O)c2c(C)cc(O)c(C=O)c2O)c(C)c1O | 95
COc1cccc(-c2cc(=O)c3cc(OC)ccc3o2)c1 | 154
Cl.NCCc1cc(O)c(O)cc1O | 118
CC(Oc1ccccc1)C(=O)N[C@@H]1C(=O)N2[C@@H]1SC(C)(C)[C@@H]2C(=O)[O-].[K+] (stereo partly drawn) | 106
CC(C)C(C)/C=C/C(C)[C@H]1CCC2C3=CCC4CC(=O)CC[C@]4(C)C3CC[C@@]21C (stereo partly drawn) | 82
CC(=O)OC1CCC23CC1(C)CCC2C(C)(C)CC3OC(C)=O (stereo not drawn) | 91
CC(C)(C)NCC(O)COc1cccc2c1C[C@H](O)[C@H](O)C2 (stereo partly drawn) | 85
O=C(O)c1nc2cc(Cl)c(Cl)cc2nc1O | 100
CC(C(=O)O)c1cccc(Oc2ccccc2)c1 (stereo not drawn) | 177
CC(=O)N[C@@H](Cc1c[nH]c2ccccc12)C(=O)O | 95
C=C[C@@](C)(O)CCC1C(=C)CCC2[C@@](C)(CO)CCC[C@]12C (stereo partly drawn) | 85
